# The other results are listed elsewhere or left out.
# B1: ECA (Erythrina cristagalli), P83410 (protein)
# chain: VETISFSFSEFEPGNDNLTLQGAALITQSGVLQLTKINQNGMPAWDSTGRTLYTKPVHMWDSTTGTVASFETRFSFSIEQPYTRPLPADGLVFFMGPTKSKPAQGYGYLGVFNNSKQDNSYQTLAVEFDTFSNPWDPPQVPHIGIDVNSIRSIKTQPFQLDNGQVANVVIKYDAPSKILHVVLVYPSSGAIYTIAEIVDVKQVLPDWVDVGLSGATGAQRDAAETHDVYSWSFQASLPE
# Columns and labels:
# Assay in all cases: glycan array binding signal (z-score within array); higher = stronger binding
# Conditions in all cases: glycan notation: IUPAC condensed, linker removed
# [1] = molecular target: Gal(b1-3)GlcNAc(a1-6)Gal(b1-4)GlcNAc
# Procedure, shortened: (§1)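 Glycan array data were curated from 3228 arrays in the Consortium for Functional Glycomics database and kept only where the protein sequence was available. Glycan names were converted to IUPAC-condensed notation, and columns mapping to the same glycan were averaged. The binding signal is a within-array Z-score, averaged across arrays of the same protein sequence at different concentrations or buffers and across linkers. Negative Z-scores can be read as non-binding.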
# Gal(b1-3)GlcNAc(b1-2)Man = molecular target: Gal(b1-3)GlcNAc(b1-2)Man
# Procedure, shortened: as §1
# [2] = molecular target: Gal(b1-3)GlcNAc(b1-2)Man(a1-3)[Gal(b1-3)GlcNAc(b1-2)Man(a1-6)]Man(b1-4)GlcNAc(b1-4)GlcNAc
# Procedure, shortened: as §1
# [3] = molecular target: Gal(b1-3)GlcNAc(b1-2)Man(a1-3)[Gal(b1-3)GlcNAc(b1-2)Man(a1-6)]Man(b1-4)GlcNAc(b1-4)[Fuc(a1-6)]GlcNAc
# Procedure, shortened: as §1
# [4] = molecular target: Gal(b1-3)GlcNAc(b1-2)Man(a1-3)[GlcNAc(b1-4)][Gal(b1-3)GlcNAc(b1-2)Man(a1-6)]Man(b1-4)GlcNAc(b1-4)GlcNAc
# Procedure, shortened: as §1
# [5] = molecular target: Gal(b1-3)GlcNAc(b1-2)[Gal(b1-3)GlcNAc(b1-6)]Man(a1-6)[Gal(b1-3)GlcNAc(b1-2)Man(a1-3)]Man(b1-4)GlcNAc(b1-4)GlcNAc
# Procedure, shortened: as §1
# [6] = molecular target: Gal(b1-3)GlcNAc(b1-3)Gal(b1-3)GlcNAc
# Procedure, shortened: as §1
# [7] = molecular target: Gal(b1-3)GlcNAc(b1-3)Gal(b1-4)Glc
# Procedure, shortened: as §1
# [8] = molecular target: Gal(b1-3)GlcNAc(b1-3)Gal(b1-4)GlcNAc
# Procedure, shortened: as §1
# [9] = molecular target: Gal(b1-3)GlcNAc(b1-3)Gal(b1-4)GlcNAc(b1-2)Man(a1-3)[Gal(b1-3)GlcNAc(b1-3)Gal(b1-4)GlcNAc(b1-2)Man(a1-6)]Man(b1-4)GlcNAc(b1-4)GlcNAc
# Procedure, shortened: as §1
# [10] = molecular target: Gal(b1-3)GlcNAc(b1-3)Gal(b1-4)GlcNAc(b1-2)[Gal(b1-3)GlcNAc(b1-3)Gal(b1-4)GlcNAc(b1-6)]Man(a1-6)[Gal(b1-3)GlcNAc(b1-3)Gal(b1-4)GlcNAc(b1-2)Man(a1-3)]Man(b1-4)GlcNAc(b1-4)[Fuc(a1-6)]GlcNAc
# Procedure, shortened: as §1
# [11] = molecular target: Gal(b1-3)GlcNAc(b1-3)Gal(b1-4)GlcNAc(b1-3)Gal(b1-4)GlcNAc(b1-2)[Gal(b1-3)GlcNAc(b1-3)Gal(b1-4)GlcNAc(b1-3)Gal(b1-4)GlcNAc(b1-6)]Man(a1-6)[Gal(b1-3)GlcNAc(b1-3)Gal(b1-4)GlcNAc(b1-3)Gal(b1-4)GlcNAc(b1-2)Man(a1-3)]Man(b1-4)GlcNAc(b1-4)[Fuc(a1-6)]GlcNAc
# Procedure, shortened: as §1
# [12] = molecular target: Gal(b1-3)GlcNAc(b1-3)Gal(b1-4)GlcNAc(b1-6)[Gal(b1-3)GlcNAc(b1-3)]Gal(b1-4)Glc
# Procedure, shortened: as §1
# [13] = molecular target: Gal(b1-3)GlcNAc(b1-3)Gal(b1-4)[Fuc(a1-3)]GlcNAc
# Procedure, shortened: as §1
# [14] = molecular target: Gal(b1-3)GlcNAc(b1-3)Gal(b1-4)[Fuc(a1-3)]GlcNAc(b1-6)[Gal(b1-3)GlcNAc(b1-3)]Gal(b1-4)Glc
# Procedure, shortened: as §1
# [15] = molecular target: Gal(b1-3)GlcNAc(b1-3)GalNAc
# Procedure, shortened: as §1
# [16] = molecular target: Gal(b1-3)GlcNAc(b1-6)Gal(b1-4)GlcNAc
# Procedure, shortened: as §1
# [17] = molecular target: Gal(b1-3)GlcNAc(b1-6)GalNAc
# Procedure, shortened: as §1
# [18] = molecular target: Gal(b1-3)GlcNAc(b1-6)[Gal(b1-3)]GalNAc
# Procedure, shortened: as §1
# Gal(b1-3)GlcNAc6S = molecular target: Gal(b1-3)GlcNAc6S
# Procedure, shortened: as §1
# [19] = molecular target: Gal(b1-3)[Fuc(a1-4)]GlcNAc
# Procedure, shortened: as §1
# [20] = molecular target: Gal(b1-3)[Fuc(a1-4)]GlcNAc(b1-2)Man
# Procedure, shortened: as §1
# [21] = molecular target: Gal(b1-3)[Fuc(a1-4)]GlcNAc(b1-2)Man(a1-3)[Gal(b1-3)[Fuc(a1-4)]GlcNAc(b1-2)Man(a1-6)]Man(b1-4)GlcNAc(b1-4)[Fuc(a1-6)]GlcNAc
# Procedure, shortened: as §1
# [22] = molecular target: Gal(b1-3)[Fuc(a1-4)]GlcNAc(b1-3)Gal(b1-3)[Fuc(a1-4)]GlcNAc
# Procedure, shortened: as §1
# [23] = molecular target: Gal(b1-3)[Fuc(a1-4)]GlcNAc(b1-3)Gal(b1-4)GlcNAc
# Procedure, shortened: as §1
# [24] = molecular target: Gal(b1-3)[Fuc(a1-4)]GlcNAc(b1-3)Gal(b1-4)[Fuc(a1-3)]GlcNAc
# Procedure, shortened: as §1
# [25] = molecular target: Gal(b1-3)[Fuc(a1-4)]GlcNAc(b1-6)GalNAc
# Procedure, shortened: as §1
# [26] = molecular target: Gal(b1-3)[GlcNAc(b1-6)]GalNAc
# Procedure, shortened: as §1
# [27] = molecular target: Gal(b1-3)[Neu5Ac(a2-6)]GalNAc
# Procedure, shortened: as §1
# [28] = molecular target: Gal(b1-3)[Neu5Ac(a2-6)]GlcNAc(b1-4)Gal(b1-4)Glc
# Procedure, shortened: as §1
# [29] = molecular target: Gal(b1-3)[Neu5Ac(a2-6)]GlcNAc(b1-6)Gal(b1-4)Glc
# Procedure, shortened: as §1
# [30] = molecular target: Gal(b1-3)[Neu5Ac(b2-6)]GalNAc
# Procedure, shortened: as §1
# Gal(b1-4)Gal = molecular target: Gal(b1-4)Gal
# Procedure, shortened: as §1
# [31] = molecular target: Gal(b1-4)GalNAc(a1-3)[Fuc(a1-2)]Gal(b1-4)GlcNAc
# Procedure, shortened: as §1
# [32] = molecular target: Gal(b1-4)GalNAc(b1-3)[Fuc(a1-2)]Gal(b1-4)GlcNAc
# Procedure, shortened: as §1
# Gal(b1-4)Glc = molecular target: Gal(b1-4)Glc
# Procedure, shortened: as §1
# Gal(b1-4)Glc6S = molecular target: Gal(b1-4)Glc6S
# Procedure, shortened: as §1
# Gal(b1-4)GlcNAc = molecular target: Gal(b1-4)GlcNAc
# Procedure, shortened: as §1
# [33] = molecular target: Gal(b1-4)GlcNAc(a1-6)Gal(b1-4)GlcNAc
# Procedure, shortened: as §1
# Gal(b1-4)GlcNAc(b1-2)Man = molecular target: Gal(b1-4)GlcNAc(b1-2)Man
# Procedure, shortened: as §1
# [34] = molecular target: Gal(b1-4)GlcNAc(b1-2)Man(a1-3)Man(b1-4)GlcNAc(b1-4)GlcNAc
# Procedure, shortened: as §1
# [35] = molecular target: Gal(b1-4)GlcNAc(b1-2)Man(a1-3)[Gal(b1-4)GlcNAc(b1-2)Man(a1-6)]Man(b1-4)GlcNAc(b1-4)GlcNAc
# Procedure, shortened: as §1
# [36] = molecular target: Gal(b1-4)GlcNAc(b1-2)Man(a1-3)[Gal(b1-4)GlcNAc(b1-2)Man(a1-6)]Man(b1-4)GlcNAc(b1-4)[Fuc(a1-6)]GlcNAc
# Procedure, shortened: as §1
# [37] = molecular target: Gal(b1-4)GlcNAc(b1-2)Man(a1-3)[Gal(b1-4)GlcNAc(b1-2)Man(a1-6)][Gal(b1-4)GlcNAc(b1-4)]Man(b1-4)GlcNAc(b1-4)[Fuc(a1-6)]GlcNAc
# Procedure, shortened: as §1
# [38] = molecular target: Gal(b1-4)GlcNAc(b1-2)Man(a1-3)[Gal(b1-4)GlcNAc(b1-2)Man(a1-6)][GlcNAc(b1-4)]Man(b1-4)GlcNAc(b1-4)[Fuc(a1-6)]GlcNAc
# Procedure, shortened: as §1
binder,measurement,setting,value
B1,glycan array binding signal (z-score),[1],-0.325
same,glycan array binding signal (z-score),Gal(b1-3)GlcNAc(b1-2)Man,-0.482
same,glycan array binding signal (z-score),[2],-0.026
same,glycan array binding signal (z-score),[3],-0.061
same,glycan array binding signal (z-score),[4],0.824
same,glycan array binding signal (z-score),[5],-0.282
same,glycan array binding signal (z-score),[6],-0.393
same,glycan array binding signal (z-score),[7],-0.239
same,glycan array binding signal (z-score),[8],-0.251
same,glycan array binding signal (z-score),[9],-0.444
same,glycan array binding signal (z-score),[10],0.845
same,glycan array binding signal (z-score),[11],0.723
same,glycan array binding signal (z-score),[12],-0.076
same,glycan array binding signal (z-score),[13],0.048
same,glycan array binding signal (z-score),[14],-0.407
same,glycan array binding signal (z-score),[15],-0.386
same,glycan array binding signal (z-score),[16],-0.601
same,glycan array binding signal (z-score),[17],-0.491
same,glycan array binding signal (z-score),[18],-0.249
same,glycan array binding signal (z-score),Gal(b1-3)GlcNAc6S,-0.549
same,glycan array binding signal (z-score),[19],-0.234
same,glycan array binding signal (z-score),[20],0.269
same,glycan array binding signal (z-score),[21],-0.026
same,glycan array binding signal (z-score),[22],-0.421
same,glycan array binding signal (z-score),[23],-0.274
same,glycan array binding signal (z-score),[24],-0.317
same,glycan array binding signal (z-score),[25],-0.191
same,glycan array binding signal (z-score),[26],-0.291
same,glycan array binding signal (z-score),[27],-0.193
same,glycan array binding signal (z-score),[28],-0.233
same,glycan array binding signal (z-score),[29],-0.259
same,glycan array binding signal (z-score),[30],-0.274
same,glycan array binding signal (z-score),Gal(b1-4)Gal,-0.627
same,glycan array binding signal (z-score),[31],-0.304
same,glycan array binding signal (z-score),[32],-0.137
same,glycan array binding signal (z-score),Gal(b1-4)Glc,-0.176
same,glycan array binding signal (z-score),Gal(b1-4)Glc6S,-0.089
same,glycan array binding signal (z-score),Gal(b1-4)GlcNAc,0.8
same,glycan array binding signal (z-score),[33],-0.372
same,glycan array binding signal (z-score),Gal(b1-4)GlcNAc(b1-2)Man,-0.339
same,glycan array binding signal (z-score),[34],-0.247
same,glycan array binding signal (z-score),[35],2.71
same,glycan array binding signal (z-score),[36],0.087
same,glycan array binding signal (z-score),[37],-0.519
same,glycan array binding signal (z-score),[38],-0.101

# Source: the supplement of paper PMC8728848
